The source of these data is patent US20230117205A1, “B7-H4 ANTIBODY-DRUG CONJUGATES FOR THE TREATMENT OF CANCER” (SEAGEN INC., priority 2021, published 2023).

Test [1] has as its system mB7-H4-expressing Renca tumors. In words: RNAseq of treated mB7-H4-expressing Renca tumors. Type of test: in vivo, Balb/c mice. The conditions noted are these: single 3 mg/kg dose; 6-7 days. How it is done:
For RNAseq, RNA was extracted from tumors and library preparation for […] sequencing was performed using PolyA selection. RNA was sequenced using the Illumina HiSeq platform 2×150 bp configuration. RNA extraction, library preparation, and sequencing were performed by GENEWIZ. Adaptors were trimmed using cutadapt version 1.16, reads were aligned to a composite (GRCh38(h38)/GRCm38(mm10)) genome using STAR version 2.5.2. Transcripts and genes were quantitated via RSEM version 1.2.31. Quantitative and statistical differences were determined between groups of samples using DESeq2 version 1.28.1. GO term and gene set enrichment analysis was performed with clusterProfiler version 3.16.1, msigdbr version 7.1.1, AnnotationDbi version 1.50.3, org.Mm.eg.db version 3.11.4, and org.Hs.eg.db version 3.11.4. […] Only GO terms with a p-value and q-value of 0.05 or less were retained. Figures were replotted using GraphPad Prism. The raw fastq files as well as the mapped BAM files are stored on the Seagen linux storage location: /fc1/jobs/research/RNASeq/. One vehicle control tumor was excluded from analysis due to degradation.
Tumors were harvested 6-7 days after treatment, cut in half, and processed for RNA-seq or IHC.

The test system of test [2] is MDA-MB-468 tumor and PBMC co-cultures. Briefly: Tumor/PBMC co-culture assay. The class given is cell-based, human. The conditions noted are these: tumor/immune cell co-cultures. How it is done: Tumor cells were transfected with Incucyte® Cytolight red lentivirus per manufacturer's instructions and stable polyclonal cell populations expressing mKate2 (red fluorescent protein, RFP) were generated under puromycin selection. Live-cell killing assays were performed by seeding RFP+ MDA-MB-468 tumor cells in 96-well flat bottom plates (Corning #3603) at a variety of densities (3,750-10,000 cells/well) and grown overnight. The following day, PBMCs isolated from healthy donors were added at 15:1 or 25:1 effector to target (E:T) ratios and cultures were treated with the indicated small molecule drugs or ADCs. To evaluate immune cell activation, supernatants were harvested between 120 and 144 hours post treatment and MIP-1β production was evaluated by Milliplex MAP Human cytokine/chemokine/growth factor panel A (12-plex) Immunology Multiple Assay (Millipore Sigma #HCYTA-60K-12C). […] Following the final wash, cell pellets were resuspended in 200 μL staining buffer and analyzed on an NXT Attune flow cytometer (ThermoFisher). Flow cytometry data were analyzed using FlowJo software and monocyte activation was quantified by measuring the MFI of CD86 staining on CD14+ monocytes within the RFP−/live/CD19−/CD3−/CD14+ gate.

Test [3] has as its system MDA-MB-468 xenograft model. Briefly: MDA-MB-468 xenograft dose range, Study MDAMB468-9. Type of test: in vivo, NSG mice. To be noted: 3 mg/kg, three weekly doses. How it is done:
Tumor volume was measured twice weekly until study day 85.
Female NSG mice were implanted with 1×10^6MDA-MB-468 cells in 25% Matrigel H C (Corning #354248) subcutaneously. Once tumor volumes reached 100 mm^3, mice were randomized into treatment groups of 5 mice each and dosed with 0.3, 1, or 3 mg/kg every seven days for three total doses (q7dx3). Twenty-four hours prior to receiving each ADC dose, each animal was treated with 10 mg/kg hIVIG (Grifolds). Tumor volumes were measured twice per week, animals were euthanized when tumor volume reached 700-1000 mm^3. Stock concentrations of ADC were diluted to desired concentration (with 0.01% Tween20 in PBS) and injected i.p. into each treatment group.

In test [4] the test system is MDA-MB-468 xenograft tumors. In words: MDA-MB-468 xenograft, single dose, tumor volume. Type of test: in vivo, NSG mice. The conditions noted are these: single 3 mg/kg dose, i.p. How it is done: Tumors were harvested 7 days after treatment, cut in half, and processed for RNA-seq or IHC. […]
Specifically, female NSG mice were implanted with 1×10^6 MDA-MB-468 cells in 25% Matrigel H C subcutaneously. Once tumor volumes reached ˜250-300 mm^3, mice were randomized into treatment groups of 6 mice each and treated with a single 3 mg/kg dose of ADC or mAb, or vehicle control (20 mM Histidine buffer, pH 6.0) injected intraperitoneally (i.p.). Stock concentrations of ADC were diluted to desired concentration with 20 mM Histidine buffer, pH 6.0 or and stock concentration of mAb were diluted to desired concentration with 0.01% Tween20 in PBS. Twenty-four hours prior to dosing, each animal was treated with 10 mg/kg hIVIG. One week following treatment, tumors were harvested, cut in half, and processed for RNAseq (frozen at −80° C.) or formalin-fixed and paraffin-embedded for immunohistochemical (IHC) analysis.

For test [5], the target named is T1, recombinant human B7-H4 protein (Homo sapiens, UniProt Q7Z7D3).
T1 construct: B7-H4 extracellular domain Phe29-Ala258 with a C-terminal 10-His tag
T1 sequence (Q7Z7D3 29-258): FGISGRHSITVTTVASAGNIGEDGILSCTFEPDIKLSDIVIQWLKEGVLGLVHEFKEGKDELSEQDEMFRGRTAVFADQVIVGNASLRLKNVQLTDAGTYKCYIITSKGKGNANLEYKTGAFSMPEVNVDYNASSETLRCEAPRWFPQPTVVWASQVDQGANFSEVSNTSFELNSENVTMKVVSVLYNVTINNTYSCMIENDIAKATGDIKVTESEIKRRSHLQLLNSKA
Briefly: BLI binding to recombinant human B7-H4 (monovalent and bivalent formats). The conditions noted are these: mAb compared with ADC. (In general: Biolayer interferometry detects binding as a change in optical thickness at a sensor tip.)

B1: B7H41001 mAb (antibody)
heavy: QLQLQESGPGLVKPSETLSLTCTVSGGSIKSGSYYWGWIRQPPGKGLEWIGNIYYSGSTYYNPSLRSRVTISVDTSKNQFSLKLSSVTAADTAVYYCAREGSYPNQFDPWGQGTLVTVSS[human IgG1 constant region not listed]
light: EIVMTQSPATLSVSPGERATLSCRASQSVSSNLAWYQQKPGQAPRLLIYGASTRATGIPARFSGSGSGTEFTLTISSLQSEDFAVYYCQQYHSFPFTFGGGTKVEIKRTVAAPSVFIFPPSDEQLKSGTASVVCLLNNFYPREAKVQWKVDNALQSGNSQESVTEQDSKDSTYSLSSTLTLSKADYEKHKVYACEVTHQGLSSPVTKSFNRGEC
modifications: non-natural residues; cyclised or stapled
With B1, the “Vtcn1 (encodes B7-H4) transcripts” value in test [1] is given as “not”. Further, in test [2], the “CD86 on CD14+ monocytes” value was “not” and the “release of MIP-1β/CCL4” value is recorded as “not”. Besides, in test [3], the “anti-tumor activity (tumor volume)” value is reported as “minimal anti-tumor activity”. In addition, the tumor volume entry in test [4] is “not”. Further, the “binding affinities for hB7-H4” value in test [5] is recorded as “similar”.
